In the experiment the target is T1, recombinant human PACAP/VIP R-2 receptor (human).
T1 chain: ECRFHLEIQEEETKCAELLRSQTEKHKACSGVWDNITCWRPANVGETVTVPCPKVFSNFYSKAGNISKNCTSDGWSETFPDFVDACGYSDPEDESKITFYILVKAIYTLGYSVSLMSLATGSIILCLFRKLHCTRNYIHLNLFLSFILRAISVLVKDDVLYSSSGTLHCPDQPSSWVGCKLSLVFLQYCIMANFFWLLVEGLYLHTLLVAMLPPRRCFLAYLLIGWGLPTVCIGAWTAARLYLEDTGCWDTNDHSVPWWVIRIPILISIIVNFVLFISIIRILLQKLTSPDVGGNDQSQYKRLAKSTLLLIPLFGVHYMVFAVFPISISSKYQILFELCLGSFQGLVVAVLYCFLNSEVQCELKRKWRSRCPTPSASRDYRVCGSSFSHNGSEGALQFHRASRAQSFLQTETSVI
Nature of the experiment: competitive displacement of 125I-VIP on intact CHL cells expressing the receptor.

B1: glucagon (ligand)
peptide: not shown
Turning to B1, the binding result is given as “no binding”.
